Assay results published in the supplement of paper PMC12217912.
The list shows a part of the results. The full chains were built here from the parent and the listed change. Inactive controls read about 0.05.

B1: TEV protease; numbered along this chain (parent)
chain: MGESLFKGPRDYNPISSSICHLTNESDGHTTSLYGIGFGPFIITNKHLFRRNNGTLVVQSLHGVFKVKDTTTLQQHLVDGRDMIIIRMPKDFPPFPQKLKFREPQREERICLVTTNFQTKSMSSMVSDTSCTFPSGDGIFWKHWIQTKDGQCGSPLVSTRDGFIVGIHSASNFTNTNNYFTSVPKNFMELLTNQEAQQWVSGWRLNADSVLWGGHKVFMVKPEEPFQPVKEATQL

Variants of: B1
Experiment: raw area under fraction-flipped curve 0-4 h after induction (AUC4h, not background-subtracted), DNA-recorder readout of cleavage of the substrate (dimensionless); higher = more cleavage of the substrate by the protease variant
Conditions: temperature: 34 °C; time window: 0-4 h after rhamnose induction
Description: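 In vivo DNA recorder in E. coli TOP10(DE3) ΔrhaA at 34 °C. Each TEVp single-site mutant (parent TEVp 0) is paired with a single-site variant of the 7-mer TEVs (canonical ENLYFQ|S). The substrate sits between flexible linkers in a Bxb1-sfGFP-TEVs-SsrA fusion, so cleavage stabilises Bxb1 and speeds flipping of a recombination array, read by NGS. The value is the raw area under the fraction-flipped curve over 0-4 h after rhamnose induction (AUC4h), with ≥20 reads per time point. It is not background-subtracted; inactive controls average about 0.047.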
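Further: Bxb1 expression induced with 0.2% (w/v) L-rhamnose at OD600 near 0.5, cultures sampled hourly, flipped fraction per protease–substrate barcode pair counted by paired-end Illumina sequencing.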

E195Y
area with substrate ECLYFQS: 0.104 | area with substrate EDLYFQS: 0.147 | area with substrate EQLYFQS: 0.102 | area with substrate ERLYFQS: 0.111 | area with substrate ESLYFQS: 0.116 | area with substrate EVLYFQS: 0.0873

T159C
area with substrate ECLYFQS: 0.0885 | area with substrate EGLYFQS: 0.126 | area with substrate EMLYFQS: 0.112 | area with substrate EQLYFQS: 0.117

G138H
area with substrate ECLYFQS: 0.0884 | area with substrate EDLYFQS: 0.0689 | area with substrate EGLYFQS: 0.0673 | area with substrate EKLYFQS: 0.124 | area with substrate EMLYFQS: 0.129 | area with substrate EPLYFQS: 0.103 | area with substrate ESLYFQS: 0.0688

D137P
area with substrate ECLYFQS: 0.107 | area with substrate EILYFQS: 0.0873 | area with substrate ELLYFQS: 0.113 | area with substrate EPLYFQS: 0.122 | area with substrate ESLYFQS: 0.124 | area with substrate ETLYFQS: 0.116 | area with substrate EWLYFQS: 0.142

I110E
area with substrate EDLYFQS: 0.0272 | area with substrate EELYFQS: 0.0438 | area with substrate EPLYFQS: 0.0513 | area with substrate ESLYFQS: 0.0375 | area with substrate EWLYFQS: 0.0482 | area with substrate EYLYFQS: 0.0532

W141H
area with substrate ECLYFQS: 0.0781 | area with substrate EKLYFQS: 0.079 | area with substrate EMLYFQS: 0.078 | area with substrate EQLYFQS: 0.0835 | area with substrate ERLYFQS: 0.0689 | area with substrate ESLYFQS: 0.0754 | area with substrate EVLYFQS: 0.0746

H168S
area with substrate ECLYFQS: 0.0556 | area with substrate EDLYFQS: 0.0572 | area with substrate EGLYFQS: 0.0643 | area with substrate EILYFQS: 0.0635 | area with substrate EKLYFQS: 0.0678 | area with substrate EMLYFQS: 0.0555 | area with substrate EPLYFQS: 0.0589 | area with substrate ESLYFQS: 0.0765 | area with substrate EVLYFQS: 0.0532 | area with substrate EWLYFQS: 0.0527 | area with substrate EYLYFQS: 0.0528

H168R
area with substrate ECLYFQS: 0.0509 | area with substrate EDLYFQS: 0.0461 | area with substrate EELYFQS: 0.0469 | area with substrate EFLYFQS: 0.0601 | area with substrate EILYFQS: 0.0408 | area with substrate EKLYFQS: 0.0631 | area with substrate EMLYFQS: 0.0617 | area with substrate EPLYFQS: 0.0533 | area with substrate ERLYFQS: 0.0566 | area with substrate ESLYFQS: 0.0632 | area with substrate ETLYFQS: 0.0573 | area with substrate EVLYFQS: 0.0571 | area with substrate EWLYFQS: 0.0589 | area with substrate EYLYFQS: 0.0532

H168V
area with substrate EDLYFQS: 0.071 | area with substrate EGLYFQS: 0.0623 | area with substrate EHLYFQS: 0.0653 | area with substrate EILYFQS: 0.0637 | area with substrate ELLYFQS: 0.0641 | area with substrate EMLYFQS: 0.0561 | area with substrate EPLYFQS: 0.0698 | area with substrate EQLYFQS: 0.0643 | area with substrate ESLYFQS: 0.057 | area with substrate ETLYFQS: 0.0604 | area with substrate EVLYFQS: 0.0464 | area with substrate EWLYFQS: 0.0586 | area with substrate EYLYFQS: 0.0561

W144F
area with substrate ECLYFQS: 0.0848 | area with substrate EGLYFQS: 0.0754 | area with substrate EILYFQS: 0.0529 | area with substrate EKLYFQS: 0.0867 | area with substrate EPLYFQS: 0.0817 | area with substrate ERLYFQS: 0.0847 | area with substrate ESLYFQS: 0.0825 | area with substrate ETLYFQS: 0.0947 | area with substrate EVLYFQS: 0.0771
